Experimental data taken from the supplement of paper PMC8512760.
Counter-ions that a name gives are not always drawn. The list shows a part of the results. Most values come without repeats; read them as rough.

System: HCC-1143
Test: cell viability relative to vehicle (% of vehicle); basal-like triple-negative breast cancer lines; higher = less cytotoxic
Settings: 10 µM; 72 h
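Note: stably firefly luciferase-GFP labeled cells in 96-well plates, viability read as luciferase photon flux after d-luciferin addition, treated wells normalized to vehicle wells, single-dose high-throughput screen.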

Compound | cell viability
CO[C@H]1/C=C/O[C@@]2(C)Oc3c(C)c(O)c4c(O)c(c(/C=N/N5CCN(C6CCCC6)CC5)c(O)c4c3C2=O)NC(=O)/C(C)=C\C=C\[C@H](C)[C@H](O)[C@@H](C)[C@@H](O)[C@@H](C)[C@H](OC(C)=O)[C@@H]1C [Rifapentine] | 82.5
CC1(C)SC2C(NC(=O)C(N)c3ccccc3)C(=O)N2C1C(=O)[O-].[Na+] (configuration not stated) [Ampicillin] | 82.3
CCOC(=O)C1=C(C)NC(C)=C(C(=O)OC)C1c1cccc(Cl)c1Cl (configuration not stated) [Felodipine] | 85.6
CCCC(=O)OC1(C(=O)COC(C)=O)CCC2C3CC(F)C4=CC(=O)C=CC4(C)C3(F)C(O)CC21C (configuration not stated) [Difluprednate] | 101
CNS(=O)(=O)Cc1ccc2[nH]cc(CCN(C)C)c2c1 [Sumatriptan] | 68.3
COc1cc2ncnc(Nc3ccc(F)c(Cl)c3)c2cc1NC(=O)C=CCN1CCCCC1 | 38.1
CN1CCC(=C2c3ccccc3CC(=O)c3sccc32)CC1.O=C(O)C=CC(=O)O [Ketotifen Fumarate] | 87
CC(Cc1cc2c(c(C(N)=O)c1)N(CCCO)CC2)NCCOc1ccccc1OCC(F)(F)F (configuration not stated) [Silodosin] | 78.9
NC1CCCCC1N.O=C([O-])C(=O)[O-].[Pt+2] (configuration not stated) [Oxaliplatin] | 75.5
c1cc(CN2CCCNCCNCCCNCC2)ccc1CN1CCCNCCNCCCNCC1 [Plerixafor (AMD3100)] | 83.3
CNC(=O)C(Cc1c[nH]c2ccccc12)NC(=O)C(CC(=O)NO)CC(C)C (configuration not stated) | 82.3
CC(C)C(=O)OCC(=O)[C@@]12O[C@H](C3CCCCC3)O[C@@H]1C[C@H]1[C@@H]3CCC4=CC(=O)C=C[C@]4(C)[C@H]3[C@@H](O)C[C@@]12C [Ciclesonide] | 67.2
Nc1ccn([C@@H]2O[C@H](CO)[C@@H](O)C2(F)F)c(=O)n1 [Gemcitabine HCl] | 72.5
CC(=O)Oc1cc(C(F)(F)F)ccc1C(=O)O [Triflusal] | 104
CN1CCC(COc2cnc(-c3cccc(Cn4nc(-c5cccc(C#N)c5)ccc4=O)c3)nc2)CC1 | 90.4
CC1C(NC(=O)C(=NOC(C)(C)C(=O)O)c2csc(N)n2)C(=O)N1S(=O)(=O)O (configuration not stated) [Aztreonam] | 94.3

Compound | cell viability
CS(=O)(=O)O.Cc1c(O)cccc1C(=O)NC(CSc1ccccc1)C(O)CN1CC2CCCCC2CC1C(=O)NC(C)(C)C (configuration not stated) [Nelfinavir Mesylate] | 91.5
Nc1ccc(S(=O)(=O)c2ccc(N)cc2)cc1 [Dapsone] | 121
Cl.Cl.OCCOCCN1CCN(C(c2ccccc2)c2ccc(Cl)cc2)CC1 (configuration not stated) [Hydroxyzine 2HCl] | 118
Br.CN1CCCC1Cc1c[nH]c2ccc(CCS(=O)(=O)c3ccccc3)cc12 (configuration not stated) [Eletriptan HBr] | 74.8
COc1cccc2c1C(=O)c1c(O)c3c(c(O)c1C2=O)CC(O)(C(=O)CO)CC3OC1CC(N)C(O)C(C)O1.Cl (configuration not stated) [Epirubicin HCl] | 26.2
CC(=O)NCC1CN(c2ccc(N3CCOCC3)c(F)c2)C(=O)O1 (configuration not stated) [Linezolid] | 83.3
CCCCCC(O)C=CC1C(O)CC(=O)C1CCCCCCC(=O)O (configuration not stated) [Alprostadil] | 102
CCCC1CC(C(=O)NC(C(C)Cl)C2OC(SC)C(O)C(O)C2O)N(C)C1.Cl (configuration not stated) [Clindamycin HCl] | 74.4
Cc1ccc(Cl)c(Nc2ccccc2C(=O)[O-])c1Cl.[Na+] [Meclofenamate Sodium] | 135
CC(C)(C)N.CCCC(NC(C)C(=O)N1C(C(=O)O)CC2CCCCC21)C(=O)OCC (configuration not stated) [Perindopril Erbumine] | 78.2
CN(C)c1nc(N(C)C)nc(N(C)C)n1 [Altretamine] | 78.6
CC(C)(C)Cn1c(N)nc2ccc(-c3[nH]c(C(C)(C)C)nc3-c3ccc(F)cc3)nc21.CS(=O)(=O)O.CS(=O)(=O)O | 69.4
CCC1C(O)C2C3CCC(C(C)CCC(=O)O)C3(C)CCC2C2(C)CCC(O)CC12 (configuration not stated) [Obeticholic Acid] | 70.9
O=c1[nH]c(=O)n(C2CC(O)C(CO)O2)cc1F (configuration not stated) [Floxuridine] | 79.6
CC(N)(Cc1ccc(O)c(O)c1)C(=O)O (configuration not stated) [Methyldopa] | 92.6
COc1cc(C=CC(=O)N2CCN(CC(=O)N3CCCC3)CC2)cc(OC)c1OC.O=C(O)C=CC(=O)O [Cinepazide maleate] | 72
